The values below come from PMC9911399, “Two distinct binding modes provide the RNA-binding protein RbFox with extraordinary sequence specificity”.

The labels stand for the following.
B1: AUCUUAA (DNA:RNA)
RNA: GGGAGACCGGAAUUCAGAUUGUCCAUCUUAAUUAAAUCCCGUCGUAGCCACCA
DNA 1: CAATCTGAATTCCGGTCTCCC
DNA 2: TGGTGGCTACGACGGGATT
B2: CUCGCAU (DNA:RNA)
RNA: B1 RNA with A25C, U28G, U29C, A31U
DNA 1: CAATCTGAATTCCGGTCTCCC
DNA 2: TGGTGGCTACGACGGGATT
B3: UCUUUAG (DNA:RNA)
RNA: B1 RNA with A25U, U26C, C27U, A31G
DNA 1: CAATCTGAATTCCGGTCTCCC
DNA 2: TGGTGGCTACGACGGGATT
B4: UCGGGAC (DNA:RNA)
RNA: B1 RNA with A25U, U26C, C27G, U28G, U29G, A31C
DNA 1: CAATCTGAATTCCGGTCTCCC
DNA 2: TGGTGGCTACGACGGGATT
B5: GAUUCCA (DNA:RNA)
RNA: B1 RNA with A25G, U26A, C27U, U29C, A30C
DNA 1: CAATCTGAATTCCGGTCTCCC
DNA 2: TGGTGGCTACGACGGGATT
B6: CUCGCUG (DNA:RNA)
RNA: B1 RNA with A25C, U28G, U29C, A30U, A31G
DNA 1: CAATCTGAATTCCGGTCTCCC
DNA 2: TGGTGGCTACGACGGGATT
B7: CGAUAAA (DNA:RNA)
RNA: B1 RNA with A25C, U26G, C27A, U29A
DNA 1: CAATCTGAATTCCGGTCTCCC
DNA 2: TGGTGGCTACGACGGGATT
B8: AAUCGAU (DNA:RNA)
RNA: B1 RNA with U26A, C27U, U28C, U29G, A31U
DNA 1: CAATCTGAATTCCGGTCTCCC
DNA 2: TGGTGGCTACGACGGGATT
B9: GCGCGCG (DNA:RNA)
RNA: GGGAGACCGGAAUUCAGAUUGUCCGCGCGCGUUAAAUCCCGUCGUAGCCACCA
DNA 1: CAATCTGAATTCCGGTCTCCC
DNA 2: TGGTGGCTACGACGGGATT
B10: CACUAGU (DNA:RNA)
RNA: B1 RNA with A25C, U26A, U29A, A30G, A31U
DNA 1: CAATCTGAATTCCGGTCTCCC
DNA 2: TGGTGGCTACGACGGGATT
B11: GGACGCG (DNA:RNA)
RNA: B9 RNA with C26G, G27A
DNA 1: CAATCTGAATTCCGGTCTCCC
DNA 2: TGGTGGCTACGACGGGATT
B12: CAGUUAA (DNA:RNA)
RNA: B1 RNA with A25C, U26A, C27G
DNA 1: CAATCTGAATTCCGGTCTCCC
DNA 2: TGGTGGCTACGACGGGATT
B13: AGCUGCC (DNA:RNA)
RNA: B1 RNA with U26G, U29G, A30C, A31C
DNA 1: CAATCTGAATTCCGGTCTCCC
DNA 2: TGGTGGCTACGACGGGATT
B14: AACAAAC (DNA:RNA)
RNA: B1 RNA with U26A, U28A, U29A, A31C
DNA 1: CAATCTGAATTCCGGTCTCCC
DNA 2: TGGTGGCTACGACGGGATT
B15: UCCGGCC (DNA:RNA)
RNA: B9 RNA with G25U, G27C, C28G, G31C
DNA 1: CAATCTGAATTCCGGTCTCCC
DNA 2: TGGTGGCTACGACGGGATT
B16: UCCCUGC (DNA:RNA)
RNA: B1 RNA with A25U, U26C, U28C, A30G, A31C
DNA 1: CAATCTGAATTCCGGTCTCCC
DNA 2: TGGTGGCTACGACGGGATT
B17: GUACUCG (DNA:RNA)
RNA: B9 RNA with C26U, G27A, G29U
DNA 1: CAATCTGAATTCCGGTCTCCC
DNA 2: TGGTGGCTACGACGGGATT
B18: AUGAGUA (DNA:RNA)
RNA: B1 RNA with C27G, U28A, U29G, A30U
DNA 1: CAATCTGAATTCCGGTCTCCC
DNA 2: TGGTGGCTACGACGGGATT
B19: GCGUAAC (DNA:RNA)
RNA: B9 RNA with C28U, G29A, C30A, G31C
DNA 1: CAATCTGAATTCCGGTCTCCC
DNA 2: TGGTGGCTACGACGGGATT
B20: GCGUAAU (DNA:RNA)
RNA: B9 RNA with C28U, G29A, C30A, G31U
DNA 1: CAATCTGAATTCCGGTCTCCC
DNA 2: TGGTGGCTACGACGGGATT
B21: CAGCCCC (DNA:RNA)
RNA: B9 RNA with G25C, C26A, G29C, G31C
DNA 1: CAATCTGAATTCCGGTCTCCC
DNA 2: TGGTGGCTACGACGGGATT
B22: ACGACUA (DNA:RNA)
RNA: B1 RNA with U26C, C27G, U28A, U29C, A30U
DNA 1: CAATCTGAATTCCGGTCTCCC
DNA 2: TGGTGGCTACGACGGGATT
B23: CUUUAGG (DNA:RNA)
RNA: B1 RNA with A25C, C27U, U29A, A30G, A31G
DNA 1: CAATCTGAATTCCGGTCTCCC
DNA 2: TGGTGGCTACGACGGGATT
B24: AGGAAAU (DNA:RNA)
RNA: B1 RNA with U26G, C27G, U28A, U29A, A31U
DNA 1: CAATCTGAATTCCGGTCTCCC
DNA 2: TGGTGGCTACGACGGGATT
B25: UGCUACA (DNA:RNA)
RNA: B1 RNA with A25U, U26G, U29A, A30C
DNA 1: CAATCTGAATTCCGGTCTCCC
DNA 2: TGGTGGCTACGACGGGATT
B26: CUCUUAG (DNA:RNA)
RNA: B1 RNA with A25C, A31G
DNA 1: CAATCTGAATTCCGGTCTCCC
DNA 2: TGGTGGCTACGACGGGATT
B27: ACUUCGU (DNA:RNA)
RNA: B1 RNA with U26C, C27U, U29C, A30G, A31U
DNA 1: CAATCTGAATTCCGGTCTCCC
DNA 2: TGGTGGCTACGACGGGATT
B28: UCGCGUG (DNA:RNA)
RNA: B9 RNA with G25U, C30U
DNA 1: CAATCTGAATTCCGGTCTCCC
DNA 2: TGGTGGCTACGACGGGATT
B29: UUGGGAC (DNA:RNA)
RNA: B1 RNA with A25U, C27G, U28G, U29G, A31C
DNA 1: CAATCTGAATTCCGGTCTCCC
DNA 2: TGGTGGCTACGACGGGATT
B30: CACUGCG (DNA:RNA)
RNA: B9 RNA with G25C, C26A, G27C, C28U
DNA 1: CAATCTGAATTCCGGTCTCCC
DNA 2: TGGTGGCTACGACGGGATT
B31: UUUACAA (DNA:RNA)
RNA: B1 RNA with A25U, C27U, U28A, U29C
DNA 1: CAATCTGAATTCCGGTCTCCC
DNA 2: TGGTGGCTACGACGGGATT

Substitutions are numbered along the chain they refer to; changes in the protein carry UniProt numbers. The list shows a part of the results.

For the assay, the target named is T1, RBFOX1 RRM (Homo sapiens, UniProt Q9NWB1 109-208).
T1 sequence: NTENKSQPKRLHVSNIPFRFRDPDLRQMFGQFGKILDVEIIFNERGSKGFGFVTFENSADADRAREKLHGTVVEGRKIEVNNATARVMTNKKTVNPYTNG
Description: EMSA; HiTS-Eq, 1 nM pool, 10 min; buffer printed only for the single-RNA assays: 10 mM Tris pH 7.5, 150 mM NaCl, 3.4 mM EDTA, 0.001% NP-40, 30 C. Particulars: tags: His6 N-terminal (pET28a); label: 5' 32P. The essentials:
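Purified wild-type or mutant RbFox RRM at increasing concentrations was equilibrated with 1 nM of 5′-radiolabelled RNA carrying 7 randomized nucleotides for 10 min in 50 µL. Unbound RNA was separated by 8% native PAGE and sequenced. Relative association constants came from read-count changes of each RNA species compared with the control reaction, normalised to the cognate motif.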
Background: In EMSA bound probe runs differently from free probe, usually more slowly.
For the molecule B1, the binding signal was 0.00359 KA relative to UGCAUGU.

B2: the binding signal was 0.0136 KA relative to UGCAUGU.

For the molecule B3, the binding signal was 0.0126 KA relative to UGCAUGU.

Turning to B4, the binding signal is 0.00547 KA relative to UGCAUGU.

Regarding B5, the binding signal was 0.00974 KA relative to UGCAUGU.

B6: the binding signal is 0.0129 KA relative to UGCAUGU.

With B7, the binding signal was 0.0045 KA relative to UGCAUGU.

As for B8, the binding signal was 0.00636 KA relative to UGCAUGU.

Take B9: the binding signal is 0.0205 KA relative to UGCAUGU.

With B10, the binding signal was 0.00197 KA relative to UGCAUGU.

In the case of B11, the binding signal was 0.0131 KA relative to UGCAUGU.

Turning to B12, the binding signal is 0.00222 KA relative to UGCAUGU.

Turning to B13, the binding signal was 0.0145 KA relative to UGCAUGU.

With B14, the binding signal was 0.00046 KA relative to UGCAUGU.

Regarding B15, the binding signal is 0.00966 KA relative to UGCAUGU.

B16: the binding signal is 0.0242 KA relative to UGCAUGU.

For the molecule B17, the binding signal is 0.0142 KA relative to UGCAUGU.

Consider B18, for which the binding signal is 0.00835 KA relative to UGCAUGU.

B19: the binding signal was 0.00892 KA relative to UGCAUGU.

On to B20, for which the binding signal was 0.00593 KA relative to UGCAUGU.

In the case of B21, the binding signal is 0.00224 KA relative to UGCAUGU.

Consider B22, for which the binding signal was 0.00262 KA relative to UGCAUGU.

On to B23, for which the binding signal is 0.0115 KA relative to UGCAUGU.

For B24, the binding signal was 0.0084 KA relative to UGCAUGU.

In the case of B25, the binding signal is 0.0119 KA relative to UGCAUGU.

As to B26, the binding signal was 0.00731 KA relative to UGCAUGU.

As to B27, the binding signal is 0.0148 KA relative to UGCAUGU.

Turning to B28, the binding signal is 0.0257 KA relative to UGCAUGU.

Regarding B29, the binding signal is 0.00488 KA relative to UGCAUGU.

B30: the binding signal is 0.0107 KA relative to UGCAUGU.

As for B31, the binding signal was 0.00179 KA relative to UGCAUGU.
